Laboratory results published in the supplement of paper PMC7125110.
± gives the standard error. Variants at the floor of the assay are shown more often than the library holds them.

B1: glmS ribozyme (parent)
chain: AUAAAAGCGCCAGAACUACAGAAAUGUAGUUGACGAGGAGGAGGUUUAUCGAAUUUUCGGCGGAUGCCUCCAAA

Columns and labels:
Details in all cases: with glucosamine-6-phosphate
glucosamine-6-phosphate [1] = variants of: B1; assay: self-cleavage kobs at 40 uM GlcN6P; higher = faster cleavage; RNA array
Procedure, shortened: (§1)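 E. coli RNA polymerase transcribed barcoded ribozyme variants in situ on sequenced MiSeq chips, which were tracked via a hybridised Cy3 probe at 37 °C. Tiles were imaged over ~14 h after glucosamine-6-phosphate (40 μM to 10 mM) in HEPES/KCl/Mg(OAc)2 buffer was flowed in. Normalised per-tile medians were fit to one- or two-exponential decays for kobs, and kcat and KM came from weighted Michaelis–Menten fits.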

glucosamine-6-phosphate [2] = variants of: B1; assay: self-cleavage kobs at 640 uM GlcN6P; higher = faster cleavage; RNA array
Procedure, shortened: as §1

glucosamine-6-phosphate [3] = variants of: B1; assay: self-cleavage kobs at 2500 uM GlcN6P; higher = faster cleavage; RNA array
Procedure, shortened: as §1

glucosamine-6-phosphate [4] = variants of: B1; assay: self-cleavage kobs at 10000 uM GlcN6P; higher = faster cleavage; RNA array
Procedure, shortened: as §1

glucosamine-6-phosphate [5] = variants of: B1; assay: self-cleavage kobs at 160 uM GlcN6P; higher = faster cleavage; RNA array
Procedure, shortened: as §1

| Variant | self-cleavage kobs at 40 uM GlcN6P (glucosamine-6-phosphate [1]) | self-cleavage kobs at 640 uM GlcN6P (glucosamine-6-phosphate [2]) | self-cleavage kobs at 2500 uM GlcN6P (glucosamine-6-phosphate [3]) | self-cleavage kobs at 10000 uM GlcN6P (glucosamine-6-phosphate [4]) | self-cleavage kobs at 160 uM GlcN6P (glucosamine-6-phosphate [5]) |
| --- | --- | --- | --- | --- | --- |
| G29U G37U G43A C58U | < 1e-05 s⁻¹ | < 1e-05 s⁻¹ | < 1e-05 s⁻¹ | < 1e-05 s⁻¹ | – |
| U30C A33G U46G | < 1e-05 s⁻¹ | – | – | – | – |
| C16U G38U G41A G62U | < 1e-05 s⁻¹ | – | – | – | – |
| U30A U49C U55A | < 1e-05 s⁻¹ | – | – | – | – |
| A15G U30G | 0.000265 ± 4.2e-05 s⁻¹ | – | – | – | – |
| G29A G60U A64C C67G | < 1e-05 s⁻¹ | – | – | – | – |
| G29U G43A G63A | < 1e-05 s⁻¹ | – | – | – | – |
| A15U A52C G59A C70A | < 1e-05 s⁻¹ | – | – | – | – |
| G29U G41A U65G | < 1e-05 s⁻¹ | – | – | – | – |
| C16G G59C | < 1e-05 s⁻¹ | < 1e-05 s⁻¹ | < 1e-05 s⁻¹ | < 1e-05 s⁻¹ | < 1e-05 s⁻¹ |
| G29C G41U U46C G62U | < 1e-05 s⁻¹ | – | – | – | – |
| A28C G63U | < 1e-05 s⁻¹ | – | < 1e-05 s⁻¹ | < 1e-05 s⁻¹ | – |
| G29U G63A | < 1e-05 s⁻¹ | < 1e-05 s⁻¹ | < 1e-05 s⁻¹ | < 1e-05 s⁻¹ | – |
| G29U U55A G59U | < 1e-05 s⁻¹ | – | – | – | – |
| C16G C34G G66C C70U | < 1e-05 s⁻¹ | – | – | – | – |
| G29C G37U G63U | < 1e-05 s⁻¹ | – | – | – | – |
| G29C G51C | < 1e-05 s⁻¹ | – | – | < 1e-05 s⁻¹ | < 1e-05 s⁻¹ |
| C16G G44A | < 1e-05 s⁻¹ | – | – | – | < 1e-05 s⁻¹ |
| G29U A42G U56C G63A | < 1e-05 s⁻¹ | – | – | < 1e-05 s⁻¹ | – |

| Variant | self-cleavage kobs at 40 uM GlcN6P (glucosamine-6-phosphate [1]) | self-cleavage kobs at 640 uM GlcN6P (glucosamine-6-phosphate [2]) | self-cleavage kobs at 2500 uM GlcN6P (glucosamine-6-phosphate [3]) | self-cleavage kobs at 10000 uM GlcN6P (glucosamine-6-phosphate [4]) | self-cleavage kobs at 160 uM GlcN6P (glucosamine-6-phosphate [5]) |
| --- | --- | --- | --- | --- | --- |
| C16U U30A U31G A53U G59U | < 1e-05 s⁻¹ | – | < 1e-05 s⁻¹ | – | – |
| U30A C34G G43C | < 1e-05 s⁻¹ | < 1e-05 s⁻¹ | < 1e-05 s⁻¹ | < 1e-05 s⁻¹ | – |
| G29A C34A U46C | < 1e-05 s⁻¹ | – | – | < 1e-05 s⁻¹ | – |
| A15U A48G | < 1e-05 s⁻¹ | – | – | – | < 1e-05 s⁻¹ |
| A15U A48C | < 1e-05 s⁻¹ | – | – | – | – |
| G29A U30C A39U A42G A48G A52U G60U | < 1e-05 s⁻¹ | – | – | < 1e-05 s⁻¹ | – |
| U30A U31C | 5.91e-05 ± 1.1e-05 s⁻¹ | – | – | – | – |
| G29U G44U U49G | < 1e-05 s⁻¹ | – | < 1e-05 s⁻¹ | – | – |
| C16G A42G | 0.000233 ± 5.6e-05 s⁻¹ | 0.000804 ± 0.0003 s⁻¹ | – | – | 0.000208 ± 9.6e-05 s⁻¹ |
| C16G A42C | < 1e-05 s⁻¹ | < 1e-05 s⁻¹ | < 1e-05 s⁻¹ | < 1e-05 s⁻¹ | < 1e-05 s⁻¹ |
| A15U G38U U45G A52U C61U | < 1e-05 s⁻¹ | – | – | < 1e-05 s⁻¹ | < 1e-05 s⁻¹ |
| G29U G40A U56A A64C C71U | < 1e-05 s⁻¹ | – | – | – | – |
| G29A C70U | 0.000121 ± 1.3e-05 s⁻¹ | 0.000483 ± 6e-05 s⁻¹ | – | 0.0021 ± 0.0006 s⁻¹ | 0.000201 ± 2.9e-05 s⁻¹ |
| A28C C34A G62C | < 1e-05 s⁻¹ | – | – | < 1e-05 s⁻¹ | – |
| C16U U45G A52U C67A C68G C71A | < 1e-05 s⁻¹ | < 1e-05 s⁻¹ | < 1e-05 s⁻¹ | – | < 1e-05 s⁻¹ |
| G29C G62C | < 1e-05 s⁻¹ | < 1e-05 s⁻¹ | < 1e-05 s⁻¹ | – | < 1e-05 s⁻¹ |
| G29U A52G G62C A64G | < 1e-05 s⁻¹ | – | – | – | – |
| U30A A39U G51A A64G | < 1e-05 s⁻¹ | – | – | < 1e-05 s⁻¹ | – |
| G29A G37C U69C | < 1e-05 s⁻¹ | – | – | – | – |

| Variant | self-cleavage kobs at 40 uM GlcN6P (glucosamine-6-phosphate [1]) | self-cleavage kobs at 640 uM GlcN6P (glucosamine-6-phosphate [2]) | self-cleavage kobs at 2500 uM GlcN6P (glucosamine-6-phosphate [3]) | self-cleavage kobs at 10000 uM GlcN6P (glucosamine-6-phosphate [4]) | self-cleavage kobs at 160 uM GlcN6P (glucosamine-6-phosphate [5]) |
| --- | --- | --- | --- | --- | --- |
| G29U G60A | < 1e-05 s⁻¹ | – | – | – | – |
| A15U U31A G32A A36U U57A C58G C71U | 5.17e-05 ± 2.1e-05 s⁻¹ | – | – | 0.000109 ± 2.6e-05 s⁻¹ | – |
| C16U U56G | 0.000579 ± 9.9e-05 s⁻¹ | 0.00302 ± 0.00067 s⁻¹ | 0.00709 ± 0.0016 s⁻¹ | 0.0241 ± 0.0047 s⁻¹ | 0.000979 ± 0.0002 s⁻¹ |
| C16U U31A G41A U69A | < 1e-05 s⁻¹ | – | – | < 1e-05 s⁻¹ | – |
| G29U C58U G62A C70U | < 1e-05 s⁻¹ | – | < 1e-05 s⁻¹ | < 1e-05 s⁻¹ | – |
| C16U G41U G51A | < 1e-05 s⁻¹ | – | – | – | – |
| G29U U30G | 9.59e-05 ± 1.7e-05 s⁻¹ | 0.00131 ± 0.00023 s⁻¹ | 0.00182 ± 0.00035 s⁻¹ | 0.00493 ± 0.001 s⁻¹ | 0.000286 ± 5.6e-05 s⁻¹ |
| U30A U55A | 0.000212 ± 3.2e-05 s⁻¹ | – | – | – | – |
| C16A G37U G43U C50G | < 1e-05 s⁻¹ | – | – | < 1e-05 s⁻¹ | – |
| A15U G43U U65A | < 1e-05 s⁻¹ | – | – | – | – |
| C16A G35U G43C C68U | < 1e-05 s⁻¹ | < 1e-05 s⁻¹ | – | – | < 1e-05 s⁻¹ |
| G29C G40A G44U C58G C71A | < 1e-05 s⁻¹ | – | – | – | – |
| G29U C58G G60A | < 1e-05 s⁻¹ | – | – | – | – |
| G29U C34A A42U | < 1e-05 s⁻¹ | < 1e-05 s⁻¹ | < 1e-05 s⁻¹ | – | – |
| G29U G35C G44A C61A | < 1e-05 s⁻¹ | – | < 1e-05 s⁻¹ | < 1e-05 s⁻¹ | – |
| C16U G41A U56C | < 1e-05 s⁻¹ | – | – | – | – |
| U30A U49A G62U | < 1e-05 s⁻¹ | – | – | – | – |
| A15U G35A C58A | < 1e-05 s⁻¹ | – | – | < 1e-05 s⁻¹ | – |
| A15U A36U G60A | < 1e-05 s⁻¹ | – | – | – | – |
